Measurements published in the supplement of paper PMC3334620.
Over roughly 33,000 sequences, “E-score (-0.5 to 0.5)” has its median near -0.01; the highest 2% begin near 0.26. The list shows a part of the results.

These sequences were tested against Ste12 (UniProt P13574) (assay: PBM E-score (8-mer binding enrichment) (E-score (-0.5 to 0.5)); higher = stronger / more preferred TF binding; most listed sequences are background and not binding sites). Settings: protein concentration: 200 nM; construct: GST-DNA-binding domain.
Summary of the method: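 Full-length yeast transcription factors or their DNA-binding domains, GST-tagged and expressed with PURExpress, were applied at about 100-200 nM to universal all-10-mer Agilent arrays. These arrays had been made double-stranded by primer extension on fresh or once-stripped slides. Detection used fluorescent anti-GST, normalisation used masliner, and E-scores for ungapped eight-base words pooled with reverse complements came from the Universal PBM Analysis Suite.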

Row | Sequence | PBM E-score
1 | ATTTGCAG | 0.108
2 | GCGTTCCA | -0.00659
3 | CAGACGCC | -0.0831
4 | CCTTTCAC | 0.0433
5 | ATTGGCCG | -0.0265
6 | TACAGGAA | 0.0897
7 | CTACCTTA | -0.00289
8 | ATGATTCG | 0.115
9 | GAGTTCTA | -0.0483
10 | AGCGTGAT | -0.154
11 | GTACGTCA | -0.253
12 | GCATATTA | -0.0187
13 | GCGTTTCC | 0.0828
14 | AGTCGTAG | -0.212
15 | CAACGCTC | -0.118
16 | CAGAGGAG | -0.212
17 | CCTTGGCC | -0.277
18 | ACGAACAG | -0.0895
19 | GCCAAAAA | 0.22
20 | ATAAACAC | 0.121
21 | CGCCGATC | 0.0606
22 | TGGGACAA | 0.0495
23 | GACCGCAA | -0.00213
24 | GCGGTTCA | -0.0271
25 | GCAACCTA | 0.0415

Row | Sequence | PBM E-score
26 | CCCCCAAG | -0.0992
27 | AGCCGAAC | -0.0882
28 | CCAGCACG | -0.134
29 | ACATTCCT | -0.0262
30 | CATCTCTA | 0.0174
31 | AAGAACCG | 0.0583
32 | CTCAGGAC | -0.0637
33 | AACTACAT | 0.0317
34 | ACTTCTAT | -0.0238
35 | CCTCCAGG | -0.116
36 | CACAAACC | 0.0105
37 | ATGCACGA | -0.0159
38 | ATAATTAA | 0.276
39 | AGCATCAC | -0.164
40 | ACAAGTGT | -0.139
41 | GAGCTCCA | -0.0868
42 | ACATGGAG | -0.15
43 | AAGACATT | -0.135
44 | GATCGGTA | 0.00632
45 | GCATGAAA | 0.318
46 | CGCCCTGA | -0.14
47 | CTGGTATC | -0.136
48 | ACGATCTG | -0.159
49 | AGCAGGGC | -0.0944
50 | GCACCGCC | -0.083

Row | Sequence | PBM E-score
51 | CCTGAGCA | 0.0288
52 | ACTACCAC | 0.0487
53 | AGAAATCC | 0.00799
54 | AGGGATTA | 0.059
55 | AATCCGTC | 0.113
56 | CGAAGAAG | -0.0919
57 | ACCCAAGC | -0.181
58 | GAACGGGA | -0.22
59 | CCTTGGAA | -0.0213
60 | GTGGCGGA | -0.0445
61 | AGGATACA | -0.195
62 | AAACTCTT | 0.0318
63 | GACAAGGA | -0.0166
64 | CTAGTGCC | -0.137
65 | CAGCCACG | 0.00078
66 | ACAAGGCA | -0.133
67 | GTACACAC | 0.0515
68 | ACTACCTG | -0.0539
69 | GAGTGGCA | -0.0621
70 | AGTCTCAA | 0.101
71 | AAAAGGCT | 0.0572
72 | ACTAGGTA | -0.245
73 | CCGACATA | 0.137
74 | TGGGCCCA | -0.0326
75 | TAACCAAA | 0.255

Row | Sequence | PBM E-score
76 | CTAAATAC | 0.0368
77 | CTTGATGA | 0.0849
78 | TGACTAAA | 0.0332
79 | CGTCCATC | -0.0101
80 | CGAAGATC | -0.149
81 | AGTGGTAA | 0.0447
82 | ACCTGTCG | 0.00512
83 | CGTCGAAG | 0.114
84 | GGCGTAAA | 0.0361
85 | ATTGAGAA | 0.277
86 | ACCGTCGA | 0.0435
87 | GGCCGTAC | -0.00176
88 | CATAGAGG | -0.0232
89 | GCGGGTAA | -0.0288
90 | AGCATTAT | -0.0448
91 | ACCCGAAA | 0.153
92 | ACGAGGTC | -0.0542
93 | GGGTATTA | 0.121
94 | ATTTGCCC | 0.0444
95 | ACTGGTAC | 7e-05
96 | CTCATTTC | -0.0747
97 | CGTGAACA | 0.137
98 | AATTAGGC | 0.179
99 | ATATGTGC | -0.0357
100 | CGTCATGA | 0.0444

Row | Sequence | PBM E-score
101 | ATACCGAG | -0.0406
102 | ATAGTCTA | -0.101
103 | TCCGTCCA | 0.00025
104 | TAGGTCAA | -0.0728
105 | CGTAATAG | 0.126
106 | GTCCTTAA | 0.0395
107 | AATCCGGC | -0.0829
108 | CCTAATTA | -0.0252
109 | CCCCCATC | -0.0759
110 | ATATATTC | 0.216
111 | ACAAACAA | 0.0589
112 | CTGCATCC | -0.183
113 | CCTTTCTC | -0.165
114 | CGTACCGA | -0.15
115 | CAGTCATC | -0.182
116 | CCACCTGC | 0.0383
117 | ACGAATTG | 0.0614
118 | GTTTAGTA | 0.064
119 | AAGCTCTG | -0.0799
120 | CTAAGCAA | -0.0422
121 | CGAACGAA | 0.0545
122 | AGCTCTCA | -0.272
123 | GTTTTGCA | 0.116
124 | GAGCTTCA | -0.0291
125 | AGTTTCTG | 0.15

Row | Sequence | PBM E-score
126 | CCCAGTGC | -0.0234
127 | GATCGAAC | -0.12
128 | CAAGTTTA | 0.00155
129 | GCGGTTAC | -0.0467
130 | ACCCTAGC | -0.149
131 | ATACATAC | 0.134
132 | ATAGCAGC | -0.184
133 | AAATAAGT | 0.126
134 | AGTCTTTG | 0.0528
135 | GTAGTGGA | -0.0969
136 | ACCACTCG | -0.0888
137 | CCCTCCTC | 0.0435
138 | ACGTACCA | -0.197
139 | AATCTCTC | 0.0241
140 | GCATCGGA | 0.00997
141 | CGGATTCA | -0.0888
142 | GGCCTTGA | -0.112
143 | TCTTTCAA | 0.0772
144 | CTTTGACC | 0.128
145 | AATCCGAG | 0.101
146 | AGGAATGC | 0.026
147 | AACAGCAC | 0.0668
148 | GCTGAGGA | -0.142
149 | ACGGTTAG | -0.25
150 | TAACAGCA | 0.144

Row | Sequence | PBM E-score
151 | ATGCCGGG | 0.0215
152 | TCAGCTGA | 0.144
153 | ACTTTGCG | -0.0237
154 | ATGAGCAG | -0.0984
155 | ACCATCCG | 0.0833
156 | ACCCATCG | -0.0818
157 | CCTACACA | 0.158
158 | AAAAGAGA | 0.167
159 | AATTATAC | 0.146
160 | ACGGTAGA | -0.119
161 | AGACAACG | -0.0139
162 | CGGATGAG | -0.11
163 | ACTTCATA | 0.21
164 | ACAGTGCA | -0.00511
165 | CACGGATA | 0.146
166 | AAAGTGCC | -0.155
167 | CATTGTTC | 0.126
168 | GCTATTGA | -0.0818
169 | AATAGCCG | -0.00261
170 | CAATGACC | -0.123
171 | GCGTGATA | -0.12
172 | CACTAAGG | -0.048
173 | ACACATAT | 0.138
174 | CTGAGGTA | 0.141
175 | CCACTTTA | 0.128

Row | Sequence | PBM E-score
176 | CCAAATTA | 0.221
177 | AAACCGAA | 0.107
178 | CCCTAACG | -0.00496
179 | GCGTGTTA | -0.089
180 | AACATCCG | 0.13
181 | GTTGCTTA | 0.0405
182 | AACTTTGC | -0.0155
183 | CGAGTTTA | 0.0514
184 | CGACTTCA | -0.0576
185 | ACACACTG | -0.0515
186 | ACAATACG | 0.0553
187 | ACCATCGC | 0.0245
188 | ACTTTTGA | 0.0816
189 | GGAGAGTA | -0.203
190 | CACTTATA | 0.0451
191 | TCTTAGAA | 0.00735
192 | ACTGCAAG | -0.168
193 | CTGCCAGC | 0.0855
194 | CCAGAGTA | 0.03
195 | ACGTGTCT | -0.0686
196 | CCGAGGAA | 0.0573
197 | AATCCACT | 0.0573
198 | GCCTCGCA | -0.0343
199 | CATGTAAG | 0.0513
200 | CTAAGGCC | -0.227

Row | Sequence | PBM E-score
201 | AACCGCTC | -0.0586
202 | AGAGATCG | -0.133
203 | AGAAGCAA | 0.153
204 | CACAAGTA | 0.0865
205 | CCCAACCG | -0.0994
206 | AGGATTGG | -0.0651
207 | AAATCGTT | 0.147
208 | CCCTGCCA | -0.0441
209 | CCAGGCAG | -0.195
210 | CACCCCAA | 0.127
211 | CCCGTTTA | 0.0626
212 | ACAAATAG | 0.168
213 | TACCTTAA | -0.00506
214 | ACGTTTTA | 0.295
215 | GACTATAC | -0.0103
216 | CCGGGGGC | -0.108
217 | ACAGAGCT | 0.0697
218 | CCGTATAA | 0.0753
219 | CAGTCAGA | -0.0584
